Measurements published in the supplement of paper PMC4967469.

How the values were obtained:
Assay in all cases: Viability of human cancer cell lines after 72 h of drug (GDSC screen)
JQ1 = compound: Cc1sc2c(c1C)C(c1ccc(Cl)cc1)=N[C@@H](CC(=O)OC(C)(C)C)c1nnc(C)n1-2 [JQ1]
Protocol: (§1)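 Human cancer cell lines in 384-well plates, medium with 10% serum, drug for 72 h over a 256-fold dose range (nine 2-fold or five 4-fold steps up to the top dose). Adherent lines were fixed and stained with the nucleic acid dye Syto60, suspension lines read with resazurin; signal relative to control wells, capped at 0 and 100%. One two-parameter sigmoid per drug and line, fitted in a mixed model over all curves with the slope shared within a line.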

Belinostat = compound: O=C(/C=C/c1cccc(S(=O)(=O)Nc2ccccc2)c1)NO [Belinostat]; settings: top dose 20 µM; top dose inferred
Protocol: as §1

NSC-207895 = compound: CN1CCN(c2ccc([N+](=O)[O-])c3no[n+]([O-])c23)CC1 [NSC-207895]; settings: top dose 20 µM; top dose inferred
Protocol: as §1

JNJ-26854165 = compound: c1ccc2c(CCNc3ccc(Nc4ccncc4)cc3)c[nH]c2c1 [JNJ-26854165]; settings: top dose 10 µM
Protocol: as §1

Cyclopamine = compound: CC1=C2C[C@H]3[C@@H](CC=C4C[C@@H](O)CC[C@@]43C)[C@@H]2CC[C@]12O[C@@H]1C[C@H](C)CN[C@H]1[C@H]2C [Cyclopamine]; settings: top dose 16 µM; top dose inferred
Protocol: as §1

Docetaxel = compound: CC(=O)O[C@@]12CO[C@@H]1C[C@H](O)[C@@]1(C)C(=O)[C@H](O)C3=C(C)[C@@H](OC(=O)[C@H](O)[C@@H](NC(=O)OC(C)(C)C)c4ccccc4)C[C@@](O)([C@@H](OC(=O)c4ccccc4)[C@H]21)C3(C)C [Docetaxel]; settings: top dose 0.0125 µM
Protocol: as §1

CGP-60474 = compound: OCCCNc1cc(-c2ccnc(Nc3cccc(Cl)c3)n2)ccn1 [CGP-60474]; settings: top dose 0.256 µM; top dose inferred
Protocol: as §1

OSI-906 = compound: C[C@]1(O)C[C@@H](c2nc(-c3ccc4ccc(-c5ccccc5)nc4c3)c3c(N)nccn32)C1 [OSI-906]; settings: top dose 2.56 µM; top dose inferred
Protocol: as §1

YM155 = compound: COCC[n+]1c2c(n(Cc3cnccn3)c1C)C(=O)c1ccccc1C2=O [YM155]; settings: top dose 5.12 µM
Protocol: as §1

FTI-277 = compound: COC(=O)[C@H](CCSC)NC(=O)c1ccc(NC[C@@H](N)CS)cc1-c1ccccc1 [FTI-277]; settings: top dose 1.024 µM; top dose inferred
Protocol: as §1

SB-715992 = compound: Cc1ccc(C(=O)N(CCCN)[C@@H](c2nc3cc(Cl)ccc3c(=O)n2Cc2ccccc2)C(C)C)cc1 [SB-715992]; settings: top dose 0.128 µM; top dose inferred
Protocol: as §1

JNK Inhibitor VIII = compound: CCOc1nc(NC(=O)Cc2cc(OC)ccc2OC)cc(N)c1C#N [JNK Inhibitor VIII]; settings: top dose 10 µM; top dose inferred
Protocol: as §1

AMG-706 = compound: CC1(C)CNc2cc(NC(=O)c3cccnc3NCc3ccncc3)ccc21 [AMG-706]; settings: top dose 2 µM; top dose inferred
Protocol: as §1

[1] = top dose 1 µM, screen: GDSC drug entry 1218, top dose inferred
[2] = top dose 2.56 µM, screen: GDSC drug entry 163

Cell Line	AUC (JQ1; [1])	pIC50 (JQ1; [1])	AUC (JQ1; [2])	pIC50 (JQ1; [2])	AUC (Belinostat)	pIC50 (Belinostat)	AUC (NSC-207895)	pIC50 (NSC-207895)	AUC (JNJ-26854165)	pIC50 (JNJ-26854165)	AUC (Cyclopamine)	pIC50 (Cyclopamine)	AUC (Docetaxel)	pIC50 (Docetaxel)	AUC (CGP-60474)	pIC50 (CGP-60474)	AUC (OSI-906)	pIC50 (OSI-906)	AUC (YM155)	pIC50 (YM155)	AUC (FTI-277)	pIC50 (FTI-277)	AUC (SB-715992)	pIC50 (SB-715992)	AUC (JNK Inhibitor VIII)	pIC50 (JNK Inhibitor VIII)	AUC (AMG-706)	pIC50 (AMG-706)
SK-N-DZ (neuroblastoma, adherent)	0.969	< 6.00	0.901	< 5.59	0.588	5.66	0.979	< 4.70	0.773	5.42	0.987	< 4.80	0.876	7.92	0.832	6.80	0.569	6.61	0.498	6.50	0.985	< 5.99	0.981	< 6.89	–	–	–	–
TC-71 (Ewing sarcoma, adherent)	0.99	< 6.00	0.99	< 5.59	0.251	6.55	0.988	< 4.70	0.891	5.08	0.992	< 4.80	–	–	0.909	6.60	0.992	< 5.59	0.016	> 7.70	0.989	< 5.99	0.687	7.62	0.992	< 5.00	0.991	< 5.70
TE-5 (oesophagus, adherent)	0.981	< 6.00	0.682	6.25	0.979	< 4.70	0.984	< 4.70	0.918	< 5.00	0.984	< 4.80	–	–	0.736	7.07	0.952	< 5.59	0.801	5.53	0.97	< 5.99	0.924	< 6.89	0.98	< 5.00	0.979	< 5.70
U-87-MG (glioma, adherent)	0.876	< 6.00	0.904	< 5.59	0.709	5.26	0.984	< 4.70	0.841	5.06	0.984	< 4.80	0.782	8.21	0.933	< 6.59	0.985	< 5.59	–	–	0.978	< 5.99	0.981	< 6.89	0.968	< 5.00	0.964	< 5.70
no-10 (glioma, adherent)	0.959	< 6.00	0.544	6.66	0.575	5.68	0.972	< 4.70	0.832	5.07	0.813	4.95	0.823	8.01	0.451	7.94	0.97	< 5.59	0.037	> 7.70	0.954	< 5.99	0.93	< 6.89	–	–	–	–

pIC50: −log10 of the molar value. Lines with a small IC50 respond at low doses; where the fit passes the top or lowest dose, that dose stands as a limit. For AUC the same curve is integrated over the 256-fold range of doses and scaled to a fraction; it is 1 without any effect and falls as sensitivity rises. For part of these data: Any top dose called inferred is not printed in the source and was worked back from the curve model. For part of these data: An entry number marks a drug with two screens in the source, which often give different values.
